# From the BET-seq Pho4 binding data (Le et al. 2018)
# This is one part of the list. Values were computed here from the reads of four pooled replicates and scatter widely.
# Biological target: T1, Pho4 (S. cerevisiae) (UniProt P07270)
# T1 sequence: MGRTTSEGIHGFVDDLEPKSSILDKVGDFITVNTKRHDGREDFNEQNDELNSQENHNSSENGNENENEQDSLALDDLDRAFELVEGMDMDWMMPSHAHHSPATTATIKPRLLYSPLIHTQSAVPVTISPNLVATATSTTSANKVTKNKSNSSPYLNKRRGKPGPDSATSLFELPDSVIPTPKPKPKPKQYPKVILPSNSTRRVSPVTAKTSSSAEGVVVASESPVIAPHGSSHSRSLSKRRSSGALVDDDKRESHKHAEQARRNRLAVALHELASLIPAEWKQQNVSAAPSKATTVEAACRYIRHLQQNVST
# Experiment: relative binding free energy (BET-seq); higher = weaker binding
# Conditions: reference: library average
row,Sequence,relative binding free energy
1,GGCTGCACGTGCGGGA,-0.03 kcal/mol
2,AGGCGCACGTGAGAGA,0.28 kcal/mol
3,CGTGTCACGTGGAGAT,0.2 kcal/mol
4,AACTTCACGTGTTATT,0.16 kcal/mol
5,TTGGGCACGTGTGCTC,-0.14 kcal/mol
6,TCTGTCACGTGTGGAG,0.15 kcal/mol
7,GGGAACACGTGTTTGG,0.01 kcal/mol
8,GGTGTCACGTGGGTAG,-0.04 kcal/mol
9,TGAGGCACGTGATTGC,0.05 kcal/mol
10,TATAACACGTGGTGGC,0.01 kcal/mol
11,TGGAGCACGTGTTTTA,-0.07 kcal/mol
12,TTTTCCACGTGGTTTC,0.17 kcal/mol
13,AGACTCACGTGGCGGG,0.17 kcal/mol
14,GGTGACACGTGTTGAG,0.16 kcal/mol
15,TGTTCCACGTGGTAAG,0.01 kcal/mol
16,CGGGGCACGTGTCAGG,-0.15 kcal/mol
17,CTGGTCACGTGTGAGT,0.04 kcal/mol
18,CGTGTCACGTGGCGAG,0.02 kcal/mol
19,TTAGCCACGTGTTTAT,-0.01 kcal/mol
20,TTAAGCACGTGATTTG,0.07 kcal/mol
21,AATTACACGTGGATGG,0.23 kcal/mol
22,GACGGCACGTGGGTTG,-0.17 kcal/mol
23,AATTACACGTGTGTAT,0.12 kcal/mol
24,ATATACACGTGTTAGA,0.03 kcal/mol
25,TAAGTCACGTGGGGTT,-0.09 kcal/mol
26,TGGTGCACGTGTAGAA,0.1 kcal/mol

row,Sequence,relative binding free energy
1,TGGTACACGTGAGTTG,0.15 kcal/mol
2,TATGCCACGTGTCGTG,-0.14 kcal/mol
3,AATTACACGTGGGATA,0.1 kcal/mol
4,AATGTCACGTGGTGAA,0.05 kcal/mol
5,ATCTTCACGTGTGGGG,0.18 kcal/mol
6,CTTTGCACGTGTATTT,0.09 kcal/mol
7,AGAGGCACGTGTTTAG,-0.09 kcal/mol
8,CCTTACACGTGTTGTG,0.11 kcal/mol
9,AGGAGCACGTGGTTGA,-0.06 kcal/mol
10,TGATTCACGTGAGAGC,0.48 kcal/mol
11,GGAAGCACGTGCAAGG,0.03 kcal/mol
12,ATGGTCACGTGCGTAT,-0.01 kcal/mol
13,TAGGACACGTGGGGCC,-0.09 kcal/mol
14,GGTGCCACGTGAGTAG,0.15 kcal/mol
15,ACTTACACGTGGTGTG,-0.01 kcal/mol
16,TACGGCACGTGGTTGT,-0.23 kcal/mol
17,GTGGGCACGTGTAAAG,0.08 kcal/mol
18,AGGGCCACGTGGATGT,-0.25 kcal/mol
19,TGTTTCACGTGTGCTT,0.3 kcal/mol
20,TAATTCACGTGAATAT,0.34 kcal/mol
21,ATGGTCACGTGTTAGG,0.1 kcal/mol
22,GTGGGCACGTGATGCG,0.03 kcal/mol
23,AGAAGCACGTGTGGTC,-0.02 kcal/mol
24,CGTATCACGTGGGTAT,-0.01 kcal/mol
25,TATGACACGTGAGGGA,0.17 kcal/mol
26,GTCGGCACGTGGTCTG,-0.22 kcal/mol

row,Sequence,relative binding free energy
1,CAGGACACGTGGTGTG,-0.16 kcal/mol
2,TTATCCACGTGGTCTT,0 kcal/mol
3,AGGATCACGTGTCTGG,0.13 kcal/mol
4,AATCACACGTGTGTGG,0.1 kcal/mol
5,GGTGGCACGTGATACT,0.08 kcal/mol
6,TCGTGCACGTGACTGG,0.17 kcal/mol
7,GTTGTCACGTGGCTAC,0.22 kcal/mol
8,GGTTGCACGTGCTTGT,-0.02 kcal/mol
9,TACGGCACGTGAATGG,0.06 kcal/mol
10,ATGGACACGTGGTCTT,-0.11 kcal/mol
11,TTGATCACGTGGACAG,0.24 kcal/mol
12,CTTTCCACGTGGTGGT,-0.03 kcal/mol
13,ATGGTCACGTGGAAGC,0.24 kcal/mol
14,TGGGTCACGTGCCGCT,0.15 kcal/mol
15,GTAGTCACGTGCGAGG,0.13 kcal/mol
16,AATTTCACGTGAGCTG,0.36 kcal/mol
17,TGTGACACGTGAGGAT,0.14 kcal/mol
18,TATCACACGTGTTGGT,0.03 kcal/mol
19,AAGTGCACGTGGGTAG,-0.13 kcal/mol
20,CATTTCACGTGAAGGG,0.44 kcal/mol
21,GAGGGCACGTGCGGTT,-0.09 kcal/mol
22,GTATGCACGTGTCATG,0.03 kcal/mol
23,GGGGACACGTGGGAGA,-0.08 kcal/mol
24,TTACTCACGTGGTTTA,0.11 kcal/mol
25,ATTTACACGTGGTTGG,0.1 kcal/mol
26,GCAGTCACGTGTGGTT,0.2 kcal/mol

row,Sequence,relative binding free energy
1,TTAAACACGTGGTATG,-0.13 kcal/mol
2,AGTAACACGTGCGGTG,-0.04 kcal/mol
3,GGCTCCACGTGGGTGT,0.12 kcal/mol
4,GATTTCACGTGGTCAT,0.35 kcal/mol
5,ATGTTCACGTGGGCGT,0.06 kcal/mol
6,TGGGACACGTGTATAG,0.21 kcal/mol
7,GGATTCACGTGGGCTA,0.28 kcal/mol
8,ACGGGCACGTGTTCGG,-0.21 kcal/mol
9,TTGCACACGTGGTATA,-0.08 kcal/mol
10,GGTAGCACGTGGTCGG,-0.2 kcal/mol
11,CGTGCCACGTGGGCGG,-0.25 kcal/mol
12,CGGTTCACGTGGTCAG,0.23 kcal/mol
13,GAGGCCACGTGAGGGG,0.14 kcal/mol
14,TTGGTCACGTGTCGAA,0.24 kcal/mol
15,GCTAGCACGTGTTTGG,0.01 kcal/mol
16,GGTAACACGTGTGCAT,0.18 kcal/mol
17,CGCGGCACGTGGACGG,-0.07 kcal/mol
18,TTTTTCACGTGGTGCA,0.19 kcal/mol
19,ATGTTCACGTGGGCGA,0 kcal/mol
20,GAGTGCACGTGGAGGA,0.01 kcal/mol
21,ATGTTCACGTGGCACG,0.33 kcal/mol
22,ATTTGCACGTGCTTAT,-0.04 kcal/mol
23,CTTGCCACGTGTTGTT,-0.08 kcal/mol
24,GTGAACACGTGGCATT,-0.01 kcal/mol
25,TGTGTCACGTGATATC,0.35 kcal/mol
26,TGGATCACGTGATGTT,0.24 kcal/mol

row,Sequence,relative binding free energy
1,GCGTACACGTGGGTAT,-0.11 kcal/mol
2,AATGGCACGTGTAGCT,-0.06 kcal/mol
3,CTTTACACGTGTTCGT,0.09 kcal/mol
4,ACGTTCACGTGTGATT,0.26 kcal/mol
5,TGGTCCACGTGCGAGT,0.04 kcal/mol
6,AAGTGCACGTGCGGTT,0 kcal/mol
7,GAAGGCACGTGGAAAG,0.11 kcal/mol
8,TTTTGCACGTGAGGCC,0.14 kcal/mol
9,TTGGACACGTGAATGT,0.35 kcal/mol
10,TTTTGCACGTGAGACT,0.17 kcal/mol
11,GGTGTCACGTGCAGAT,0.04 kcal/mol
12,TGTTTCACGTGTATTA,0.2 kcal/mol
13,GAGGTCACGTGAAAGG,0.44 kcal/mol
14,GTGGTCACGTGTGGAC,0.22 kcal/mol
15,TGGTGCACGTGGTCTT,-0.02 kcal/mol
16,GTTAGCACGTGTGCGC,0.17 kcal/mol
17,TTGAGCACGTGTAATG,-0.01 kcal/mol
18,AATGTCACGTGTGGTC,0.04 kcal/mol
19,CGTGACACGTGTTTTT,0.06 kcal/mol
20,TGGTTCACGTGTGAAT,0.44 kcal/mol
21,ATAAGCACGTGGTAGT,-0.1 kcal/mol
22,TAGATCACGTGGAGTG,0.15 kcal/mol
23,TGTTGCACGTGCGCGT,-0.19 kcal/mol
24,GTGTGCACGTGGACAT,-0.12 kcal/mol
25,GATCTCACGTGGAGTG,0.36 kcal/mol
26,TTCGTCACGTGGTTAG,0.03 kcal/mol

row,Sequence,relative binding free energy
1,TTAGTCACGTGAGGAA,0.32 kcal/mol
2,TGAGGCACGTGACGTA,-0.05 kcal/mol
3,GAGTTCACGTGCGGTA,0.4 kcal/mol
4,AGAGTCACGTGATGGA,0.2 kcal/mol
5,TGAGGCACGTGGGTGC,-0.2 kcal/mol
6,ATATGCACGTGTGTCT,-0.05 kcal/mol
7,ATTGACACGTGCTGGA,-0.03 kcal/mol
8,GGGTGCACGTGTGTAA,0.04 kcal/mol
9,GTGTACACGTGGTCGC,-0.01 kcal/mol
10,AATTTCACGTGATTTA,0.2 kcal/mol
11,GAGTGCACGTGGGATG,0 kcal/mol
12,TTTGGCACGTGCTATG,-0.15 kcal/mol
13,GTGGGCACGTGTGTCG,0.05 kcal/mol
14,AATTTCACGTGGGCTG,0.2 kcal/mol
15,GAGGGCACGTGCTGAT,-0.11 kcal/mol
16,ACGTGCACGTGGTAGA,-0.05 kcal/mol
17,GGTGGCACGTGGTGAC,-0.13 kcal/mol
18,GTAATCACGTGGGTCA,0.06 kcal/mol
19,GGATTCACGTGCTAGG,0.27 kcal/mol
20,CAGTTCACGTGGATTT,0.33 kcal/mol
21,GGATTCACGTGAGTTT,0.43 kcal/mol
22,CTTTGCACGTGACGTT,0.2 kcal/mol
23,TGTACCACGTGGTCGG,-0.26 kcal/mol
24,GGTTACACGTGATGAT,0.21 kcal/mol
25,TTGAGCACGTGATGGG,-0.02 kcal/mol
26,TTGATCACGTGCGGTC,0.12 kcal/mol

row,Sequence,relative binding free energy
1,GGTGACACGTGCGGCG,-0.05 kcal/mol
2,GTTGACACGTGGGGTA,-0.13 kcal/mol
3,GTGGCCACGTGAGAGG,0.12 kcal/mol
4,CTTAACACGTGGCGGG,-0.07 kcal/mol
5,GTGGTCACGTGCTTGG,0.05 kcal/mol
6,TAGAACACGTGAGGGG,0.27 kcal/mol
7,TGAGTCACGTGGGAAG,0.11 kcal/mol
8,TGAGGCACGTGAGTCT,0.04 kcal/mol
9,CTGATCACGTGGTATG,0.06 kcal/mol
10,TGGACCACGTGGCGTT,-0.13 kcal/mol
11,GGTGACACGTGTAGTG,0.07 kcal/mol
12,TATAACACGTGATGGT,0.12 kcal/mol
13,TGATACACGTGCGTTT,0.1 kcal/mol
14,TTGCTCACGTGGGCGG,0.11 kcal/mol
15,TCGTGCACGTGATGTG,0.07 kcal/mol
16,TTAGACACGTGGTTAA,-0.13 kcal/mol
17,CTGGTCACGTGAGTGG,0.25 kcal/mol
18,TAGTTCACGTGTAGCG,0.3 kcal/mol
19,TTAGACACGTGCAGGT,-0.01 kcal/mol
20,AGTGACACGTGTACTT,0.11 kcal/mol
21,TAGAACACGTGAGTGA,0.34 kcal/mol
22,TGTTGCACGTGGAGAC,-0.03 kcal/mol
23,CGTTGCACGTGAGGTT,0.17 kcal/mol
24,GCTTGCACGTGTGGAT,0.05 kcal/mol
25,GACGTCACGTGTTGTA,0.29 kcal/mol
26,GAATTCACGTGTTCTT,0.43 kcal/mol

row,Sequence,relative binding free energy
1,CTCGTCACGTGTGTGT,0.08 kcal/mol
2,AGGTGCACGTGGGTCG,-0.19 kcal/mol
3,ATTTCCACGTGTGGAT,0.07 kcal/mol
4,ACATTCACGTGTGGTA,0.15 kcal/mol
5,GATGGCACGTGTGATC,0.13 kcal/mol
6,TGTGGCACGTGTTCTA,-0.09 kcal/mol
7,CTTGTCACGTGATAGG,0.18 kcal/mol
8,TGAGTCACGTGTTCTG,0.08 kcal/mol
9,ATATGCACGTGGATAT,0.06 kcal/mol
10,TCTATCACGTGTCGTG,0.2 kcal/mol
11,AAAGGCACGTGTGTAA,-0.1 kcal/mol
12,TGGATCACGTGACGGA,0.28 kcal/mol
13,GGTGGCACGTGTTCTA,0.05 kcal/mol
14,ATAATCACGTGAGGTG,0.39 kcal/mol
15,TTTCACACGTGTGTCG,0.11 kcal/mol
16,CGGGCCACGTGGTGGA,-0.24 kcal/mol
17,TTGTACACGTGGTTCG,0.09 kcal/mol
18,TGGTCCACGTGGGTGA,-0.15 kcal/mol
19,GTTTGCACGTGAGGGT,0.2 kcal/mol
20,TATTTCACGTGCGTAT,0.18 kcal/mol
21,GGAATCACGTGTCGTG,-0.03 kcal/mol
22,AGGCGCACGTGTGGAA,-0.06 kcal/mol
23,AGTTTCACGTGATTTT,0.31 kcal/mol
24,CTTAGCACGTGTTTGT,-0.09 kcal/mol
25,GAGGTCACGTGATAAT,0.3 kcal/mol
26,TTTATCACGTGGGCTT,0.09 kcal/mol

row,Sequence,relative binding free energy
1,AGGTCCACGTGGTTTG,-0.02 kcal/mol
2,ATATACACGTGTGTTC,-0.07 kcal/mol
3,AGAGACACGTGTAGGA,0.09 kcal/mol
4,TTGGACACGTGATAGG,0.27 kcal/mol
5,GTGTGCACGTGCTGAA,-0.1 kcal/mol
6,ATTTGCACGTGTTGGG,0.14 kcal/mol
7,GGCTACACGTGTGGAG,0.18 kcal/mol
8,GCAGTCACGTGTAGGG,0.15 kcal/mol
9,GTCCACACGTGGGGTT,-0.07 kcal/mol
10,TCGGCCACGTGCGGGT,-0.16 kcal/mol
11,ATAGGCACGTGTGCGT,-0.17 kcal/mol
12,GTATTCACGTGCGGGT,0.27 kcal/mol
13,TTGGCCACGTGCTGTT,-0.09 kcal/mol
14,ATTTCCACGTGATGGT,0.17 kcal/mol
15,ATTGACACGTGAATGT,0.21 kcal/mol
16,GGTCTCACGTGTTAGA,0.17 kcal/mol
17,GTCTTCACGTGTATTT,0.41 kcal/mol
18,GTGGCCACGTGTTTGT,-0.06 kcal/mol
19,GTGTGCACGTGCCGGA,-0.06 kcal/mol
20,AGTTACACGTGCGGTG,0.05 kcal/mol
21,TTGCTCACGTGTGTGG,0.07 kcal/mol
22,AGATACACGTGTGGGA,0.09 kcal/mol
